# Screen size: about 310,000 compounds; about 14,000 (4.5%) showed an effect of 50% or more. Effects have a minus sign here. The list shows a part of the results.
# Target: human ether-à-go-go-related gene (hERG) potassium channel (human, UniProt Q12809)
# Assay: primary screen, population patch clamp on CHO cells stably expressing hERG
# 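Also: peak tail current of the secondary pulse compared with the same well before compound.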
# Chain of human ether-à-go-go-related gene (hERG) potassium channel (Q12809 whole entry, looked up): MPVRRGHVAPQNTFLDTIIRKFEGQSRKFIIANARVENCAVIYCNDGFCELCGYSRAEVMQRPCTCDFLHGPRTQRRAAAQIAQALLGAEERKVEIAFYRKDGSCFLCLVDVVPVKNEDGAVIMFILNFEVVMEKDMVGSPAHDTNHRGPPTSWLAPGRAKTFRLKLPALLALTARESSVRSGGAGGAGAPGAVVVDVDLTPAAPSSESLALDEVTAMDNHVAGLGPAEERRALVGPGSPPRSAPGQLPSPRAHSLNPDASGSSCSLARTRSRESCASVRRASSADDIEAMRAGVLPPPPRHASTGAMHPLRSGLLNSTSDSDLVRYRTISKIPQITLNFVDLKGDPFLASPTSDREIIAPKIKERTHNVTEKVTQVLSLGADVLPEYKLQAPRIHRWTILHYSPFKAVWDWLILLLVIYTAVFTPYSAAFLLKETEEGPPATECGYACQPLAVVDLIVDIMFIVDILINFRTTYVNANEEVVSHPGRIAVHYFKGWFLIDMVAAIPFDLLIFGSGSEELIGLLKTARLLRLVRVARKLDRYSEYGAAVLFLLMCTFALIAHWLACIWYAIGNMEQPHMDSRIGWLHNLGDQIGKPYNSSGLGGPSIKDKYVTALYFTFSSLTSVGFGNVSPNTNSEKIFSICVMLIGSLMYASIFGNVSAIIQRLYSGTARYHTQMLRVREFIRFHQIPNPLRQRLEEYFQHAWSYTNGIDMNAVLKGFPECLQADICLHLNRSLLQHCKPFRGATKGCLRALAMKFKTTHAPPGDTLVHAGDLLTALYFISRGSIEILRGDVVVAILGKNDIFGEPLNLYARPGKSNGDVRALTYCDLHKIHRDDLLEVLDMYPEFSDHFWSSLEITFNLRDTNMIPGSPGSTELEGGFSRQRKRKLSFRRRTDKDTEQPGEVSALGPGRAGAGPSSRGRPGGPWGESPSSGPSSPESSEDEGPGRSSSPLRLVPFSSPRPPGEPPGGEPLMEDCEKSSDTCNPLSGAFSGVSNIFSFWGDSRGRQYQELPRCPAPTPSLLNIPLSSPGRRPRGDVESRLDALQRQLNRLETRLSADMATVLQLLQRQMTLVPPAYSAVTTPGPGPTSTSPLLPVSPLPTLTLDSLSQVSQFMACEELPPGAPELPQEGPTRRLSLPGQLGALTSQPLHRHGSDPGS
row,SMILES,"hERG current change (%, negative = inhibition) at 10uM [%]"
1,COc1cc2ccc(=O)oc2c2ccoc12,-11.1
2,Cc1ccc(N(CCC#N)C(=O)COC(=O)c2ccccc2SCC(=O)N2CCCC2)cc1,-5.39
3,C/C=C/c1ccc(OCC(=O)Nc2cc(S(=O)(=O)N3CCOCC3)ccc2N2CCCC2)c(OC)c1,3.81
4,CC1(NC(=O)CSc2nnc(-c3c[nH]c4ccccc34)n2C2CC2)CCS(=O)(=O)C1 (centres unmarked),-0.208
5,Cc1nn(CC(=O)NCCCN2C(C)CCCC2C)c(=O)c2cc3occc3n12 (centres unmarked),17.5
6,COc1ccc(C(=O)N2CCc3cc(OC)c(OC)cc3C2)cc1OC,1.37
7,c1ccc2c(Cn3ccnc3)c[nH]c2c1,2.6
8,CCN(CC)CC(=O)Nc1ccc(C)cc1Br,3.09
9,CCN(CC)S(=O)(=O)c1cc(C(=O)OCC(=O)Nc2ccc(-c3nc4ccc(C)cc4s3)cc2)ccc1F,6.97
10,COc1ccc(OC)c(CNC(=O)c2coc(=O)c3ccccc23)c1,11
11,CN(c1ccc(OCC(=O)NC2CCCC2)cc1)S(=O)(=O)c1cccs1,-80.6
12,O=C1CC(C(=O)N2CCOCC2)C2(CCCCC2)O1 (centres unmarked),17.8
13,Cc1ccc(O)c(NC(=O)c2ccccc2-c2ccccc2C(=O)O)c1,17.2
14,CCc1ccc(NC(=O)CN2C(=O)C(=O)N(Cc3ccccc3)C2=O)cc1,19.8
15,Cc1c(C(=O)Nc2ccc(Cl)cc2)c2ccccn2c1CCc1ccncc1,-5.68
16,Cc1cccc(NC(=S)NCc2ccc3c(c2)cc(C)n3C)c1C,-9.2
17,CCC(C)(C(=O)NC1CCCC1)N(C(=O)CNC(=O)c1ccccc1)c1c(C)n(C)n(-c2ccccc2)c1=O (centres unmarked),14.2
18,COc1ccc(C(C(=O)NC2CCCC2)N(Cc2ccccc2)C(=O)CNC(=O)c2ccco2)cc1 (centres unmarked),-16
19,Cc1nc(SCC(=O)NC2CCCC2)[nH]c(=O)c1C,16.2

row,SMILES,"hERG current change (%, negative = inhibition) at 10uM [%]"
1,Oc1ccccc1-c1nnc(SCCN2CCOCC2)n1Cc1ccccc1,-22.4
2,O=C(O)CN1C(=O)C2C3C=CC(C2C1=O)C1C(=O)N(CC(=O)O)C(=O)C31 (centres unmarked),21.8
3,CCOc1ccc(/C=N/Nc2ccccn2)cc1,-3.72
4,CCOc1ncccc1C(=O)OCC(=O)Nc1ccc2c(c1)OCCO2,0.222
5,Cc1[nH]n2c(=O)c3c(nc2c1-c1ccccc1)CCCC3,-9.26
6,COC(=O)c1ccccc1OCCCOc1ccc(C)cc1OC,-8.44
7,O=C(CSc1nnc(COc2ccccc2)o1)c1ccccc1,1.95
8,O=C(CC(=O)Nc1cccc(F)c1)Nc1cccc(F)c1,3.41
9,CCN(Cc1ccccc1)S(=O)(=O)c1cc(C(=O)NCC2CCCCC2)ccc1OC,-9.52
10,OCc1cc(-c2ccc(Cl)c(Cl)c2)on1,8.12
11,Cc1cc(C)n(CC(=O)Nc2ccc3c(c2)OCO3)c(=O)c1C#N,2.59
12,O=C(CCNc1n[nH]c(=O)[nH]c1=O)N/N=C\c1cccc(OCc2ccccc2)c1,16.3
13,C=C1C2C[C@@]3([C@@H]1O)[C@@H](C[C@@H]2O)[C@@]12C4[C@@H]3C[C@@H]1[C@@](C)(CC[C@@H]2O)CN4CC,19.7
14,Cc1cccc(NC(=O)CN2C(=O)N/C(=C/c3ccc(-c4cccc(C(=O)O)c4C)o3)C2=O)c1,14.3
15,CC(Sc1ccccc1)C(=O)Nc1ccccc1C(=O)N1CCOCC1 (centres unmarked),5.66
16,Cc1ccc(NC(=O)Nc2ccc3c(c2)C(=O)OC3)cc1Cl,18.7
17,O=[N+]([O-])c1cccc(-c2nnc3ccccn23)c1,-12.2
18,COc1cc(NC(=O)c2cc(S(=O)(=O)N3CCCCC3)c[nH]2)cc(OC)c1,11
19,COc1ccc(CCNC(=O)c2ccccc2NS(=O)(=O)c2cc(C(=O)O)ccc2OC)cc1,12.2

row,SMILES,"hERG current change (%, negative = inhibition) at 10uM [%]"
1,CCOC(=O)c1c(NC(=O)CSc2nc3cc(Cl)ccc3s2)sc(C(C)=O)c1C,-2.82
2,Cc1cccc(NCc2ccc(N(C)C)cc2)n1,3.87
3,COCc1cc(=O)[nH]c(/N=C(\N)Nc2cccc(C)c2)n1,-1.25
4,Cc1c(Cl)cccc1Nc1nc(N)nc(CSc2ncccn2)n1,-11.2
5,COc1cc(OC)cc(C(=O)NC(C)CCc2ccccc2)c1 (centres unmarked),-25.9
6,CCN(CC)c1ccc(/C=N/NC(=O)c2ccco2)cc1,-6.99
7,Cc1cc2[nH]c(=S)[nH]c2cc1C,-20.1
8,Cc1cccc(NC(=O)CSCC(=O)Nc2cc(Cl)ccc2N2CCOCC2)c1,-31
9,Cc1ccccc1NC(=O)CC1S/C(=N/c2nccs2)N(C)C1=O (centres unmarked),-0.096
10,COc1ccc(NC(=O)c2cc(Cl)ccc2NC(=O)c2ccco2)c(OC)c1,-85.2
11,CC1CCCN(Cc2cccc(Oc3ccccc3)c2)C1 (centres unmarked),-20.7
12,Brc1ccc(-c2n(-c3ccccn3)c3ccccc3[n+]2-c2ccccn2)cc1.[I-],-29.9
13,CCC(C)c1ccccc1NC(=O)Cc1coc2cc3c(cc12)CCC3 (centres unmarked),-10.8
14,CCCN(CCC)C(=O)c1cc(S(=O)(=O)N2CCCCC2)c[nH]1,-5.77
15,Cc1cc(C)n2nc(SCC(=O)N/N=C/c3cccc(Br)c3)nc2n1,3.45
16,CSc1ccccc1NC(=O)CCn1c(=O)sc2ccccc21,4.6
17,O=C(CNS(=O)(=O)c1ccccc1)NNC(=O)C(Cl)Cl,19.2
18,C[NH+](C)CC(C)(C)CNS(=O)(=O)c1cccc(Cl)c1Cl.[Cl-],5.82

# Reference: article PMC4336329 (PLoS ONE, 2015)
